Source: PubChem BioAssay AID1645887 (National Center for Advancing Translational Sciences (NCATS), 2021)
Where “and” joins values, the source holds several entries; their conditions need not be identical. Equal entries are not always repeated. The campaign covered roughly 16,000 compounds. About 40 (0.2%) were called active. Roughly 1% stayed inconclusive and do not appear here. Calls come from the whole dose curve; as a rule, active = well fitted activation curve with a large enough effect; inconclusive = small, poorly fitted or top-dose-only effect, or another doubt; inactive = no such curve, though single readings can be large or run the other way. This is one part of the list. Residues, ends and D or L forms follow the SMILES beside them. *: point of attachment. Cbz = O=C(OCc1ccccc1)*

These compounds were tested against Rap guanine nucleotide exchange factor 4 (Homo sapiens) (UniProt Q8WZA2) (assay: Validation qHTS for agonist of cAMP-regulated guanine nucleotide exchange factor 4 (EPAC2)). Conditions: EPAC2 Rap1B BODIPY-GDP exchange, fluorescence; activation: hits give high values.
Outline: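 Fluorescent exchange assay: 100 nM EPAC2 with 250 nM RAP1B-BODIPY-GDP and 50 uM GDP; compound added, 5 min at room temperature, then read (ex 480/em 540 nm) every 5 min for 30 min. Normalized to 6.5 mM cAMP agonist control.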
% is set by controls: 0 for no effect and ±100 for the full control effect.
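Note: exchange makes BODIPY-GDP fluorescence drop when released from Rap1B; series mostly up to about 150 µM.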

UniProt Q8WZA2, sequence (Q8WZA2 whole entry, looked up): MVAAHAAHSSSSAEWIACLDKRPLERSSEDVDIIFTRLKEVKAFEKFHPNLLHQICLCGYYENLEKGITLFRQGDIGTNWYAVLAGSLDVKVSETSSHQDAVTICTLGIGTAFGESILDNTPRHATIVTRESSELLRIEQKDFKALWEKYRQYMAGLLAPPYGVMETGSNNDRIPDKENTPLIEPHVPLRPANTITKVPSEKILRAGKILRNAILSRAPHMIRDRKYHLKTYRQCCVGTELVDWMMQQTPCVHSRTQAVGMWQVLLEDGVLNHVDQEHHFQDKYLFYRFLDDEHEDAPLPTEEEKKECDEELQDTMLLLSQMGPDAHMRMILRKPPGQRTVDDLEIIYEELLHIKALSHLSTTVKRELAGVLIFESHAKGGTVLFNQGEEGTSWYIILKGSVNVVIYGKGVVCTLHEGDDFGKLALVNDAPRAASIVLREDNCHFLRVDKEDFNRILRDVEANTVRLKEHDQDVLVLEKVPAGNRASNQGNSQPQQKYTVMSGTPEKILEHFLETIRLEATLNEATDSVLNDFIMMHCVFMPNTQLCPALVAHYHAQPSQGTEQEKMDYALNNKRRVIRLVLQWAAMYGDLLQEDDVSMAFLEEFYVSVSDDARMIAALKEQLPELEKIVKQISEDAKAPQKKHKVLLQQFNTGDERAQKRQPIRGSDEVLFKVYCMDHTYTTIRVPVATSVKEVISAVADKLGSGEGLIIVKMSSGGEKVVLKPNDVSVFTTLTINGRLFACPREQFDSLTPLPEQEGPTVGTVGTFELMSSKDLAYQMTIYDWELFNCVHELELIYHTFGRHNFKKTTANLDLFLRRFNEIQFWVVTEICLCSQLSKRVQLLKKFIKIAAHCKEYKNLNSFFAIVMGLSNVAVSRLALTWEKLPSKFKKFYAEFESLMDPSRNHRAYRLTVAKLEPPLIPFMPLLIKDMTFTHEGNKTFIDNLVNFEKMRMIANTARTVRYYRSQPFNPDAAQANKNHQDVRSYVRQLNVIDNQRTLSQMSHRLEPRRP

activation, inactive:
O=C(c1ccncc1)N1CCC2(CCCN(c3ccccc3)C2)CC1 3.06%
O=c1c(-c2ccccc2)nc2cnc(Oc3ccccc3)nc2n1C1CC1 1.5%
O=c1cnc2cnc(Nc3ccccc3)nc2n1C[C@H]1CCCO1 -4.56%
CCS(=O)(=O)N(C)[C@@H]1c2cc(C#N)ccc2OC(C)(C)[C@H]1O -14.8% and -7.63%
O=Nc1c(-c2c(O)[nH]c3cc(Br)ccc23)[nH]c2ccccc12 -6.43%
O=C1c2ccccc2-n2c1nc1ccccc1c2=O -10.7%
O=C(NCc1ccncc1)c1cnn(-c2ncc3c(n2)-c2ccccc2CC3)c1C1CC1 -5.81%
O=C(NCO)c1cccnc1 -4.55%
CO[C@@H]1[C@@H](OC(N)=O)[C@@H](O)[C@H](Oc2ccc3c(O)c(NC(=O)c4ccc(O)c(CC=C(C)C)c4)c(=O)oc3c2C)OC1(C)C -10.7%
NC1=NCCCC1 -12.1%
COCC(=O)Nc1cc(C(=O)N2CCCC(c3ccccc3)CC2)c2c(c1)nc(-c1ccncc1)n2C (stereo not given) -5.52%
CSC(N)=NCCCC(N)C(=O)O (stereo not given) -12.7%
Cc1noc(C)c1C(=O)N1CCC[C@@]2(CCN(Cc3nccs3)C2)C1 -2.88%
CCCc1c(OCCCCc2nn[nH]n2)ccc(C(C)=O)c1O -10.3% and -6.17% and -32.3%
CC(=O)Oc1cccc(O)c1 -9.46%
CCOC(=O)c1c[nH]c2nc(C)ccc2c1=O -19%
Cc1occc1C(=O)Nc1cccc(-c2nc(CNC(=O)c3ccc(N4CCCCC4)cc3)c(C)o2)c1 -4.85%
O=C1CCNCCN1[C@H](CO)c1ccccc1 -16.1%
CCOC(=O)C[C@H]1c2cc(F)ccc2S(=O)(=O)N1c1cccc(OC)c1 -13.1%
CSc1nc(C(=O)N2CCc3c(cnc(C)c3CNC(=O)c3ccc4c(c3)OCO4)C2)cs1 0.51%
O=C(O)CC[C@@H](C(=O)O)N1C(=O)c2ccccc2C1=O -41.6%
CCN(CC)C1CCN(C(=O)c2cnn(-c3nccc(-c4ccccc4OC)n3)c2-c2ccco2)C1 (stereo not given) -3.49%
COc1ccc(OC)cc1 -8.62%
OCCN1CCN(CCCN2c3ccccc3Sc3ccc(Cl)cc32)CC1 -21% and 21.8% and -61.1%
COc1ccc(-c2nc3cnc(Oc4ccccc4)nc3n(C3CC3)c2=O)cc1 -12.7%
CN1CCCC2(CCN(C(=O)c3cccc(F)c3)CC2)C1 -10.5%
CC(C)C(C)(C)C(C)(C)C(C)(C)S 5.2%
c1ccc(CNc2nc(-c3ccoc3)nc3ccccc23)cc1 4.71%
CN(C)CCc1c[nH]c2ccc(Cn3cncn3)cc12 -17.7%
COc1ccc2c(c1)c1c3n2CCN(C)C3=NCC1 -1.93%
CC(C)(C)[C@@H]1CCC(=O)N(CC[C@H](Sc2ccc(Br)cc2)c2ccccc2)CC1 -20.5%
COc1ccc2[nH]c(C(O)C(O)c3nc4c(OC)c(OC)ccc4[nH]3)nc2c1OC (stereo not given) -4.69%
Cc1cnc(-n2ncc(C(=O)NCCc3cccnc3)c2C)nc1-c1cccs1 -6.85%
OC[C@H]1O[C@@H](Oc2ccc(O)cc2)[C@H](O)[C@@H](O)[C@@H]1O -12.7%
Nc1ccc(S(=O)(=O)c2ccc(N)cc2)cc1 13.8% and -34.9%
CCOC(=O)C(CCc1ccccc1)NC(C)C(=O)N1C(C(=O)O)CC2CCCC21 (stereo not given) -11.3%
COC(=O)c1ccc(-c2cccc3c2OC(CNC(=O)c2ccc4c(c2)OCCO4)C3)nc1 (stereo not given) 2.2%
COc1cc(/C=C/C(=O)O)cc(OC)c1OC 2.54%
Oc1cc(-c2cccs2)cc2c1OCCN(Cc1cn[nH]c1-c1ccc(Cl)cc1)C2 -2.13%
CC(=O)/C=C1\C(=O)N(C)c2ccccc21 -43.8%
NCCCCCCCCCCN -24.8%
Cc1ccnn1CC(=O)N1CCOc2c(cc(-c3csc4ccccc34)cc2OC2CCOC2)C1 (stereo not given) 2.7%
COc1ccccc1C(=O)N1CCOc2ccc(CN3CCN(Cc4ccccn4)CC3)cc2C1 -9.53%
COc1ccc(NC(=O)N2CCCC3(CCN(C(=O)c4ccc(OC)cc4)CC3)C2)cc1 -11.6%
N[C@@H](C(=O)O)c1ccc(C(=O)O)c(C(=O)O)c1 -2.3% [middle of 4 runs]
N#Cc1ccc(CN2CC[C@@]3(CCCN(C(=O)c4ccncc4)C3)C2)cc1 -9.71%
COc1ccc(-n2c(=O)cnc3cnc(N(C)C)nc32)cc1 -6.54%
Cc1ccccc1-c1nc(NCc2cccs2)c2ccccc2n1 2.92%
COC(=O)[C@@H]1CCCN1C(=O)c1c(OC)cc(=O)n2c1CCN(Cc1c(C)[nH]c3ccccc13)CC2 -0.341%
CN(N=O)C(=O)N[C@H]1C(O)OC(CO)[C@@H](O)[C@H]1O (stereo not given in full) -5.09%
CC1(C)OC(=O)NC1=O 9.54%
O=c1c(-c2ccc(F)cc2)nc2cnc(N3CCNCC3)nc2n1Cc1ccc(F)cc1 -8.6%
CS(=O)(=O)N1CCC2(CCN(Cc3nccs3)CC2)CC1 -8.36%
Nc1ccc(C(=O)NCC(=O)O)cc1 -4.08% and 1.12%
COc1ccc(NS(=O)(=O)c2ccc(N)cc2)nn1 4.21% and -9.82%
COc1ccccc1CN1CC2(CCN(C(=O)c3ccncc3)CC2)C1 -9.78%
C#C[C@]1(O)CC[C@H]2[C@@H]3CCC4=Cc5oncc5CC4(C)[C@H]3CCC21C (stereo not given in full) -50.9%
CCCC(=O)O[C@]1(C(=O)COC(C)=O)CC[C@H]2[C@@H]3C[C@H](F)C4=CC(=O)C=C[C@]4(C)[C@@]3(F)[C@@H](O)C[C@@]21C -0.176%
O=C(c1cccc(F)c1)N1CCC2(CC1)CN(Cc1ccccc1)C2 4.34%
Cn1nnnc1SCC1=C(C(=O)O)N2C(=O)[C@@H](NC(=O)[C@H](O)c3ccccc3)[C@H]2SC1 -12.4%
COCCn1c(=O)c(CCc2ccccc2)nc2cnc(Oc3ccc(OC)cc3)nc21 -11.5%
Cc1csc(C)[n+]1CCC1CCCCC1 -2.4%
O=C1C2=C(S[C@@H]3O[C@H](CO)[C@@H](O)[C@H](O)[C@H]3O2)C(=O)c2ccccc21 -9.79%
CN(C)c1nc(-c2cccnc2)nc2ccccc12 -4.79%
O=C(O)c1cc(O)c2c(c1)[O][Bi][O]2 1.7%
CN1CCN(c2ncc3nc(-c4ccc(Cl)cc4)c(=O)n(Cc4ccc(F)cc4)c3n2)CC1 -6.25%
CCCCC(C)(O)C/C=C/[C@H]1[C@H](O)CC(=O)[C@@H]1CCCCCCC(=O)OC (stereo not given in full) -19.4%
CCC1(O)CC2CN(CCc3c([nH]c4ccccc34)[C@@](C(=O)OC)(c3cc4c(cc3OC)N(C)C3[C@]45CCN4CC=C[C@@](CC)([C@@H](OC(C)=O)[C@]3(O)C(=O)OC)[C@H]45)C2)C1 (stereo not given in full) 7.14%
Cc1ccc2cc(CNCc3cccc4ccccc34)c(N3CCC(O)CC3)nc2c1 -8.51%
CCCCC/C=C\C\C=C/C=C/C=C/[C@@H](SCC(NC(C)=O)C(=O)O)[C@@H](O)CCCC(=O)O (stereo not given in full) 4.36%
NC(C(=O)O)C(O)C(=O)O (stereo not given) -12.8%
Cc1ncc(CSSCc2cnc(C)c(O)c2CO)c(CO)c1O -4.13%
N#Cc1cccc(-c2cncnc2NCc2ccccc2)c1 -9.93%
C[C@H](CCC(=O)O)[C@H]1CC[C@H]2[C@H]3C(C[C@H](O)[C@]12C)[C@@]1(C)CC[C@@H](O)C[C@H]1C[C@H]3O (stereo not given in full) -4.43%
C=C[C@@H]1c2ccccc2N(S(=O)(=O)c2ccc(C)cc2)[C@H](c2ccc(C(F)(F)F)cc2)C1(C#N)C#N -21.4%
NCCn1c(=O)c(CCc2ccccc2)nc2cncnc21 -2.18%
CCC1(C2CCN(Cc3cccc(Cl)c3)CC2)NC(=O)N(CC2COc3ccccc3O2)C1=O (stereo not given) 8.42%
COc1ccccc1CN1CCCC2(CCN(C(=O)c3cnccn3)CC2)C1 -15.6%
O=C(NC1CCC(=O)N(CCSc2ccccc2)CC1)OCc1ccccc1 (stereo not given) -15.9%
Nc1nc(Cl)nc2c1ncn2[C@@H]1O[C@H](COP(=O)(O)OP(=O)(O)OP(=O)(O)O)[C@@H](O)[C@H]1O 2.2%
CC(=O)Oc1cccc2c1C(=O)c1c(OC(C)=O)cc(C(=O)O)cc1C2=O -25.9%
C#C[C@]1(O)CC[C@@H]2[C@H]3CCC4=CC(=O)CC[C@H]4[C@H]3C(=C)C[C@@]21CC -15.7%
COc1ccccc1CNc1nc(-c2cccc(C#N)c2)nc2ccccc12 12.8%
CC(C)C[C@@H](C=O)NC(=O)[C@H](CC(C)C)NC(=O)[C@H](CC(C)C)NC(=O)OCc1ccccc1 (Cbz-Leu-Leu-Leu-aldehyde) 2.4%
COc1cc(OC)c(/C=C/c2ccccn2)c(OC)c1 -21.2%
